Results reported in PubChem BioAssay (NCATS).
Where “and” joins values, the source holds several entries; their conditions need not be identical. Equal entries are not always repeated. The inconclusive results got no clear call from the source; some entries with a clear call stand among them for comparison. Potencies of inconclusive entries are left out as doubtful fits. Calls of active or inactive are those of the source. Calls come from the whole dose curve; as a rule, active = well fitted inhibition curve with a large enough effect; inconclusive = small, poorly fitted or top-dose-only effect; inactive = flat fitted curve, though single readings scatter.
Potency is the fitted concentration of half-maximal effect; tags give direction and shape of the fitted curve.

These molecules were tested against Tyrosyl-DNA phosphodiesterase 1 (Homo sapiens) (UniProt Q9NUW8) (assay: Confirmation Assay for Inhibitors of Tyrosyl-DNA Phosphodiesterase (TDP1) (AID 489007; note: nearly all actives have a fitted effect of over 40% in size)). Details: recombinant human TDP1 enzymatic activity, dose-response.
Sequence of UniProt Q9NUW8 (Q9NUW8 whole entry, looked up): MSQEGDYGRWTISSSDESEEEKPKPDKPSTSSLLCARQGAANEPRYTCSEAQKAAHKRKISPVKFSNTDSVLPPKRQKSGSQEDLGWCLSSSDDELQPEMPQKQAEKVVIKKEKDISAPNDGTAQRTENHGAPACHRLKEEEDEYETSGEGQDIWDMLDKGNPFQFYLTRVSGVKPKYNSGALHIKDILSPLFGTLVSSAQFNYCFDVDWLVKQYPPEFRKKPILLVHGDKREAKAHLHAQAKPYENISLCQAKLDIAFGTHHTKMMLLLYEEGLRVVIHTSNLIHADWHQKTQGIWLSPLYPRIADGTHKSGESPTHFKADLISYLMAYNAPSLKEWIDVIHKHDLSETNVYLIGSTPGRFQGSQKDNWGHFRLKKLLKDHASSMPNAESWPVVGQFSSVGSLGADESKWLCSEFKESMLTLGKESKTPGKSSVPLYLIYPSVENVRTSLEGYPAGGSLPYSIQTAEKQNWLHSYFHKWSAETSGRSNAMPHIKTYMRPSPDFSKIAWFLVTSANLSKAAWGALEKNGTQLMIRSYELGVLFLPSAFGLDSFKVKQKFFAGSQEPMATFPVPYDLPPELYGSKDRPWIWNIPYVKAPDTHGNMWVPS
In short: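 AlphaScreen assay of tyrosine-FITC cleavage from a biotinylated DNA substrate (15 nM) by E. coli-expressed human Tdp1 (1 nM). Sequence: compound preincubation 15 min, reaction 5 min, bead detection 10 min, all at room temperature. No-enzyme wells give maximum signal.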
With `COc1cc(O)c(C(=O)/C=C/c2ccc(O)c(OC)c2)c(OC)c1` the Potency was inconclusive [inhibitor, partial curve].
With `Cc1noc(C)c1-c1cncnc1NC1CC1` the Potency was inconclusive [inhibitor, partial curve].
In the case of `CC(=O)OCC1=C(C(=O)O)N2C(=O)C(NC(=O)CSc3ccncc3)[C@@H]2SC1` (stereo not given in full), the Potency is reported as active: 14.1 µM.
In the case of `O=C(N/N=C\c1ccccc1O)c1ccccc1O`, the Potency is reported as inconclusive [inhibitor, single point].
`COc1ccccc1-c1cncnc1NCc1cccnc1` was tested, and the Potency was inconclusive [inhibitor, partial curve].
`CN(Cc1ccco1)c1ccnc(-c2ccoc2)n1` was tested, and the Potency was inconclusive [inhibitor, full curve].
`O=C(O)c1cc(O)c2c(c1)[C@H]([C@H]1c3cc(C(=O)O)cc(O)c3C(=O)c3c(O[C@@H]4OC(CO)C(O)C(O)C4O)cccc31)c1cccc(O[C@@H]3OC(CO)C(O)C(O)C3O)c1C2=O` (stereo not given in full) was tested, and the Potency was inconclusive [inhibitor, full curve].

Each molecule was assayed against Ubiquitin carboxyl-terminal hydrolase 1 (Homo sapiens) (UniProt O94782) (assay: Inhibitors of USP1/UAF1: Pilot qHTS (AID 504865;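 note: rhodamine fluorescence freed from ubiquitin-rhodamine substrate followed over time; nearly all actives have a fitted effect of over 35% in size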)). Details: purified USP1/UAF1, Ub-rhodamine cleavage fluorescence; series mostly up to 54.9 µM.
Sequence of UniProt O94782 (O94782 whole entry, looked up): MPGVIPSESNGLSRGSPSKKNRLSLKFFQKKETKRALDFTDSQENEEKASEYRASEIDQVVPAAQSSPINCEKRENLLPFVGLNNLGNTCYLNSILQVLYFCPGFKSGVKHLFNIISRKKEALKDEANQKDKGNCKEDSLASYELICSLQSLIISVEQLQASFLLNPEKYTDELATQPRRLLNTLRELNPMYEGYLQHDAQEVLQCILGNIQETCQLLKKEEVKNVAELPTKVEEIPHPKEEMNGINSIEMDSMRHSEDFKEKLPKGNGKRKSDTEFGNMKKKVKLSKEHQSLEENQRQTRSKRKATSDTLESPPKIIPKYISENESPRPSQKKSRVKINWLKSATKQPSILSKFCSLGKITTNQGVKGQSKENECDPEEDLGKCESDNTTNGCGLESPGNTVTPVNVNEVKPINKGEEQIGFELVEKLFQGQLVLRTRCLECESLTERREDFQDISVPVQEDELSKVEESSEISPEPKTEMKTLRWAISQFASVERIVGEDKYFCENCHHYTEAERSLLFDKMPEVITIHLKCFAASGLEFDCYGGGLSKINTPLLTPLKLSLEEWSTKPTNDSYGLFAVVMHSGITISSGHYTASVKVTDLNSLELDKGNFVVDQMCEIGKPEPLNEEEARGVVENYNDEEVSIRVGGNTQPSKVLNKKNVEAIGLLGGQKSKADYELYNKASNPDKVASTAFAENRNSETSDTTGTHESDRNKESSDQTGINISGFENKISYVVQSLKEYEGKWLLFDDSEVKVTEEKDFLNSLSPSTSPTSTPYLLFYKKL
In short: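 In 50mM HEPES pH 7.8 containing 0.5mM EDTA, 1mM TCEP, 0.1 mg/ml BSA and 0.01% Tween-20, 1nM USP1/UAF1 is exposed to compound for 15 min, then Ub-Rho (150nM final) is added and fluorescence is read over time.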
With `NC[C@@H]1O[C@@H](O[C@H]2[C@H](O)[C@H](O[C@@H]3O[C@H](CO)[C@@H](O)[C@H](N)[C@@H]3O)[C@@H](N)C[C@H]2N)[C@H](N)C[C@@H]1O` the Potency was inconclusive [inhibitor, partial curve, poor fit].
For `COc1cc(O)c(C(=O)/C=C/c2ccc(O)c(OC)c2)c(OC)c1`, the Potency was inconclusive [inhibitor, full curve, poor fit].
`CCN[C@@H]1C[C@H](C)S(=O)(=O)c2sc(S(N)(=O)=O)cc21` was tested, and the Potency was inconclusive [inhibitor, single point].
With `COc1cc(/C=C/C(=O)/C=C(O)/C=C/c2ccc(O)c(OC)c2)ccc1O` the Potency was active: 12.6 µM and active: 31.6 µM.
`Cc1ccc2c(c1)c1c3n2CCN[C@H]3CCC1` was tested, and the Potency was inconclusive [inhibitor, partial curve, poor fit].
`O=C(O)c1cc(O)c2c(c1)[C@H]([C@H]1c3cc(C(=O)O)cc(O)c3C(=O)c3c(O[C@@H]4OC(CO)C(O)C(O)C4O)cccc31)c1cccc(O[C@@H]3OC(CO)C(O)C(O)C3O)c1C2=O` (stereo not given in full) was tested, and the Potency was active: 10 µM.
In the case of `CCCCC(=O)OC1CCC2C3CCc4cc(O)ccc4C3CC[C@]12C` (stereo not given in full), the Potency is reported as inconclusive [inhibitor, partial curve].
In the case of `C[C@@H]1C[C@H]2[C@H]3C[C@@H](F)C4=CC(=O)C=C[C@]4(C)[C@@]3(Cl)[C@@H](O)C[C@@]2(C)[C@@H]1C(=O)COC(=O)C(C)(C)C`, the Potency is reported as inconclusive [inhibitor, single point].
